Results published in the supplement of paper PMC11417369.
± gives the standard deviation of the averaged measurements. Some of the results follow.

What follows are sequences tested on PfAP2-I AP2 domain 3 (GST-tagged) (assay: gcPBM binding intensity (ln(normalized median fluorescence intensity)); higher = stronger DNA binding).
Method in brief: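 An Agilent 4 × 180k array carrying primer-extended double-stranded 36-bp intergenic genomic probes and negative controls received GST-tagged P. falciparum DNA-binding domains expressed in E. coli, about 25 μg on average, for 1 h. The binding buffer contained 1× PBS, 1% milk, 0.2 mg/ml BSA, 0.5% salmon testes DNA and 0.03% Triton X-100. Binding intensity is the top Masliner-normalised natural-log median intensity across replicate spots of either probe orientation, read after Alexa488 anti-GST antibody staining and a 488 nm scan.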

| Sequence | gcPBM binding intensity (ln) |
| --- | --- |
| CATAAGATTTTTACATGTACATATTTATAATATATT [XGTACX_site6578] | 7.91 ± 0.29 |
| GATATATAAATTGACACACACATATATACCTATATA [CACACA_site6689] | 7.8 ± 0.59 |
| TTCTTTTTTTTTTTTTCATGTATATTAAACTTTTCA [TGCATGCA_negctrl_site592] | 7.61 ± 0.42 |
| AATATTTATATTAACTGTACAGAAAATATCTTTGCT [XGTACX_site8130] | 7.84 ± 0.3 |
| TATGCCATGGCATAATGTACATAAGTGACCTCATAA [XGTACX_site1294] | 7.79 ± 0.6 |
| AATATAAAAATGTTTACACACACACCGAAATATATT [CACACA_site8800] | 7.97 ± 0.68 |
| AATTAGCTATTTAAAAATATATAAAATTTATATATA [CACACA_negctrl_site390] | 7.47 ± 0.2 |
| ATCATATTGAATATTTAACACACATTTCGCTTAATT [CACACA_site8652] | 7.68 ± 0.8 |
| GAAATAGAGAGACACACACACATATATTTATGTATT [CACACA_site7794] | 7.46 ± 0.5 |
| AAAATGTAGAAATGGGTGCACACACATATATAATAT | 10.28 ± 0.064 |
| TATATATATAAAAGTTGTACAGTGTTTTATATAGTT [XGTACX_site7085] | 8.71 ± 0.26 |
| TTATGTAAAATCGATACATGCATTAATCATTTTATA [TGCATGCA_site493] | 7.91 ± 0.84 |
| TCATATTTCCATAGGAGTACATAAAAAAAATAATAT [XGTACX_site7601] | 8.2 ± 0.23 |
| TATGATATGTTATACACACACGTATTTATGAATTGA [CACACA_site7591] | 7.79 ± 0.53 |
| ATTTATATTAATGGATAAATAAATGTGTACTTGATA [CACACA_negctrl_site24] | 8.14 ± 0.099 |
| TTCTTTATTATATGCACACGTACATATAATATATAT [CACACA_site2018] | 9.55 ± 0.26 |
| AAAAAAAAAAAACACACACACATATATATATATATA [CACACA_site732] | 9.445 ± 0.049 |
| ATCAACAAAACATACACACACATATAGATTTATATA [CACACA_site7415] | 7.81 ± 0.41 |
| AAGAAAAAAAAAAAAAATATATATATAAGAACATAT [TGCATGCA_negctrl_site131] | 7.45 ± 0.67 |
| GATAAAACGTTATGCACACGTACGTGGGTATTTATA [CACACA_site4954] | 10 ± 0.3 |
| AACTATAAAAAAAATACACACATTACCAAAAATATA [CACACA_site1529] | 7.63 ± 0.59 |
| AATCTGATTTGTATATGTACACAAATATTTTTATTT [XGTACX_site5295] | 7.73 ± 0.64 |
| TATAAAAAAATATATATATATATATATATATAAATA [TGCATGCA_negctrl_site22] | 8.02 ± 0.16 |

| Sequence | gcPBM binding intensity (ln) |
| --- | --- |
| TTTAATAATTATTAAAGTACAAAATAAATATTGAAT [XGTACX_site7538] | 7.89 ± 0.56 |
| TGCTATATAATATGAGCACACATAAGATTTGGTGTT [CACACA_site8148] | 8.05 ± 0.6 |
| ATATTTTTATTTAAACGTACATACACGTTGAAAAGA [XGTACX_site4567] | 7.85 ± 0.33 |
| TTTTCAATTAATAATACACACATGTATATATCATTA [CACACA_site7539] | 7.84 ± 0.49 |
| TAATGCATTATTAGAATACACACCATACGCATATTT [CACACA_site289] | 8.12 ± 0.52 |
| TGATGTTGTAACAAAAGTACACACACATTTCTATAA [XGTACX_site5837] | 7.86 ± 0.15 |
| TTTTTCTTTTGATGTTGTACATATATATTATATATA [XGTACX_site2754] | 7.99 ± 0.47 |
| TTTTTCTTAAAAAATTGTACACATATATATATATAT [XGTACX_site542] | 9.65 ± 0.22 |
| ATTAAGTTAAACATTACACACTATGTATTATTTATG [CACACA_site973] | 7.62 ± 0.73 |
| TTTTTTTTTTTTAATACACACATATTTATATTTATT [CACACA_site7802] | 8.15 ± 0.6 |
| CTAAGCTAAGTAAGCTGTACTTCACCTTTATACAGT [XGTACX_site3087] | 7.52 ± 0.69 |
| CTATTTTTATATTATTGTACGTTGTTATTATATATA [XGTACX_site1469] | 8.08 ± 0.51 |
| ATATAGAACACCTGTGCATGCAAGTGCTAAAAAATT [TGCATGCA_site213] | 9.93 ± 0.16 |
| TAATATTATTTAGAGTGTACTCATAAATCAACAAAA [XGTACX_site5269] | 7.76 ± 0.4 |
| TTTATATTTATATATACACACATATACATCCTATTT [CACACA_site3079] | 7.67 ± 0.52 |
| ATATATATGGAAACAGTGCAATACATATATATATAT | 10.74 ± 0.071 |
| TTTTTTTTTTTTTGCACACACATAATAGGTACAAAT [CACACA_site3577] | 9.63 ± 0.11 |
| CATATTTACTATCACACACACGATATATATAAATAT [CACACA_site1241] | 8.01 ± 0.47 |
| TTTTTTTTTTTTTTCTCACACATTTAATGATAATAT [CACACA_site5513] | 8.02 ± 0.59 |
| TTATACTAAATGAACACACACACATCTATATTTATA [CACACA_site6199] | 7.77 ± 0.44 |
| AATTAAAATAATAATACACACATCATAGAAAAAGAC [CACACA_site292] | 8.79 ± 0.23 |
| AAATTAGACTATAATACACACATAAAAAAAAAATCA [CACACA_site7672] | 7.79 ± 0.4 |
